Measured values: the supplement of paper PMC7826260
Some of the results follow. Viral Rep nickase domains cut single-stranded DNA in vitro (3 µM enzyme, 1 h, 37 °C); shown is the middle of each 90-letter strand. Values are log2 of uncut reads against the no-enzyme pool; strong cutting gives strongly negative numbers. There is no active / inactive call. Shares of all reads are compared; uncut strands gain when others are lost, and binding without cutting may add a little.

Legend:
Experiment in all cases: uncleaved DNA left, log2 of reads against the no-enzyme library (log2 ratio); higher = less cleavage (more negative = more Rep cleavage of the k-mer); sequences stand for … in CTCGTCCG…ACCGGAGA
[1] = tested on: T1, Rep nickase domain of Muscovy duck circovirus
T1 sequence (residues 1-111, tag not shown): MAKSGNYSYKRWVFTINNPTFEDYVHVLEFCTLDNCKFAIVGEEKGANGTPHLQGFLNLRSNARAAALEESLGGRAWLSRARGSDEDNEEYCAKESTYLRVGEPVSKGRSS
Description: (§1)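 A pool of 90-nt single-stranded DNAs with seven random bases just before the constant AC of the nick site (name = the seven bases) was cut by 3 µM recombinant His6-SUMO-tagged Rep nickase domain (300 nM DNA, 50 mM HEPES pH 8.0, 50 mM NaCl, 1 mM MnCl2, 1 h, 37 °C, three replicates). Uncut DNA was amplified and sequenced.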

[2] = tested on: T2, Rep nickase domain of banana bunchy top virus
T2 sequence (residues 1-94, tag not shown): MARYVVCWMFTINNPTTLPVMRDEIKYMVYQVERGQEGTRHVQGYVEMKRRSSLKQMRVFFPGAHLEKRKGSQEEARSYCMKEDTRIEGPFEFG
Description: as §1

[3] = tested on: T3, Rep nickase domain of cabbage leaf curl virus
T3 sequence (residues 1-116, tag not shown): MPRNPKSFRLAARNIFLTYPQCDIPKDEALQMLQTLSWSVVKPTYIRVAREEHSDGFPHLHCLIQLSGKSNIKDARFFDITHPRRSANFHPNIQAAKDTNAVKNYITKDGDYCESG
Description: as §1

[4] = tested on: T4, Rep nickase domain of chickpea chlorotic dwarf virus
T4 sequence (residues 1-124, tag not shown): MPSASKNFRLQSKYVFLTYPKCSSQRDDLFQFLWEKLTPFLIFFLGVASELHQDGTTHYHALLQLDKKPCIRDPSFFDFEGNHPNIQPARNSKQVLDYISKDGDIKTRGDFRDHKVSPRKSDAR
Description: as §1

[5] = tested on: T5, Rep nickase domain of faba bean necrotic yellows virus
T5 sequence (residues 1-98, tag not shown): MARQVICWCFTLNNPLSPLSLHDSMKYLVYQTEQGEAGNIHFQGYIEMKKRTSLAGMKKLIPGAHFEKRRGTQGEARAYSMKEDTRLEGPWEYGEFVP
Description: as §1

[6] = tested on: T6, Rep nickase domain of maize striate mosaic virus
T6 sequence (residues 1-117, tag not shown): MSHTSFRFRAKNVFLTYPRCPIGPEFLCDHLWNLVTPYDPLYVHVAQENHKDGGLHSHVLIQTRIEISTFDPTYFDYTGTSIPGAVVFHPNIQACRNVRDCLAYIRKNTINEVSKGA
Description: as §1

[7] = tested on: T7, Rep nickase domain of porcine circovirus 2
T7 sequence (residues 2-116, tag not shown): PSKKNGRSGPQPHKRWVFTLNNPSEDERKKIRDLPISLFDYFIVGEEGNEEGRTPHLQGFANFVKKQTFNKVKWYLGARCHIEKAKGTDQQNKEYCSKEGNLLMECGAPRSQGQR
Description: as §1

[8] = tested on: T8, Rep nickase domain of tomato golden mosaic virus
T8 sequence (residues 1-124, tag not shown): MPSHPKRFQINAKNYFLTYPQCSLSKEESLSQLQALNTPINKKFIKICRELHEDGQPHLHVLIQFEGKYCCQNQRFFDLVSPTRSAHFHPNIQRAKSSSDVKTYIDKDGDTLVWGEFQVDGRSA
Description: as §1

[9] = tested on: T9, Rep nickase domain of tomato yellow leaf curl virus
T9 sequence (residues 1-136, tag not shown): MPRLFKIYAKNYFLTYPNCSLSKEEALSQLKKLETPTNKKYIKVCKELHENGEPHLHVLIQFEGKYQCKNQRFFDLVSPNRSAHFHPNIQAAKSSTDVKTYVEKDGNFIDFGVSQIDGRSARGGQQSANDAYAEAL
Description: as §1

[10] = tested on: T10, Rep nickase domain of wheat dwarf virus
T10 sequence (residues 1-137, tag not shown): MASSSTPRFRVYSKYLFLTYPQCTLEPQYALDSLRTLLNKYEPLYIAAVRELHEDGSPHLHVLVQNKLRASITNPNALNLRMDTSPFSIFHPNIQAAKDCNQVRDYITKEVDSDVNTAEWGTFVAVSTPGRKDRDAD
Description: as §1

For TGGGTTC, the “uncleaved DNA left (log2)” value [1] was 0.088, the “uncleaved DNA left (log2)” value [2] was -0.0279 and the “uncleaved DNA left (log2)” value [3] was 0.623. The “uncleaved DNA left (log2)” value [4] was 1.19, the “uncleaved DNA left (log2)” value [5] was -0.0256 and the “uncleaved DNA left (log2)” value [6] was 1.71. The “uncleaved DNA left (log2)” value [7] was 0.187, the “uncleaved DNA left (log2)” value [8] was 0.0782 and the “uncleaved DNA left (log2)” value [9] was 0.0406. For the same sequence, the “uncleaved DNA left (log2)” value [10] was 0.0345.

In the case of CAACTAC, the “uncleaved DNA left (log2)” value [1] was -0.0554, the “uncleaved DNA left (log2)” value [2] was -0.185 and the “uncleaved DNA left (log2)” value [3] was -0.442. For the same sequence, the “uncleaved DNA left (log2)” value [4] was -2.5, the “uncleaved DNA left (log2)” value [5] was -0.0455 and the “uncleaved DNA left (log2)” value [6] was -1. For the same sequence, the “uncleaved DNA left (log2)” value [7] was -0.05, the “uncleaved DNA left (log2)” value [8] was -0.093 and the “uncleaved DNA left (log2)” value [9] was -0.189. The “uncleaved DNA left (log2)” value [10] was -0.0681.

In the case of TCAATTG, the “uncleaved DNA left (log2)” value [1] was 0.0614, the “uncleaved DNA left (log2)” value [2] was 0.0487 and the “uncleaved DNA left (log2)” value [3] was -0.428. The “uncleaved DNA left (log2)” value [4] was -0.598, the “uncleaved DNA left (log2)” value [5] was -0.00656 and the “uncleaved DNA left (log2)” value [6] was -1.18. The “uncleaved DNA left (log2)” value [7] was 0.141, the “uncleaved DNA left (log2)” value [8] was 0.0766 and the “uncleaved DNA left (log2)” value [9] was 0.00361. For the same sequence, the “uncleaved DNA left (log2)” value [10] was -0.0992.

In the case of GCTCGGA, the “uncleaved DNA left (log2)” value [1] was -0.0117, the “uncleaved DNA left (log2)” value [2] was 0.0109 and the “uncleaved DNA left (log2)” value [3] was 0.173. The “uncleaved DNA left (log2)” value [4] was 0.508, the “uncleaved DNA left (log2)” value [5] was 0.0386 and the “uncleaved DNA left (log2)” value [6] was 0.254. For the same sequence, the “uncleaved DNA left (log2)” value [7] was 0.276, the “uncleaved DNA left (log2)” value [8] was 0.113 and the “uncleaved DNA left (log2)” value [9] was -0.0508. For the same sequence, the “uncleaved DNA left (log2)” value [10] was 0.0318.

In the case of TTTATAA, the “uncleaved DNA left (log2)” value [1] was -0.000719, the “uncleaved DNA left (log2)” value [2] was 0.119 and the “uncleaved DNA left (log2)” value [3] was 0.0708. The “uncleaved DNA left (log2)” value [4] was 0.182, the “uncleaved DNA left (log2)” value [5] was -0.0615 and the “uncleaved DNA left (log2)” value [6] was 0.33. The “uncleaved DNA left (log2)” value [7] was -0.0198, the “uncleaved DNA left (log2)” value [8] was -0.00766 and the “uncleaved DNA left (log2)” value [9] was 0.0768. For the same sequence, the “uncleaved DNA left (log2)” value [10] was 0.0629.

GTATTGC was tested, and the “uncleaved DNA left (log2)” value [1] was -0.0845, the “uncleaved DNA left (log2)” value [2] was -0.12 and the “uncleaved DNA left (log2)” value [3] was -0.654. The “uncleaved DNA left (log2)” value [4] was -0.463, the “uncleaved DNA left (log2)” value [5] was -0.00697 and the “uncleaved DNA left (log2)” value [6] was -0.987. The “uncleaved DNA left (log2)” value [7] was -0.0339, the “uncleaved DNA left (log2)” value [8] was -0.0598 and the “uncleaved DNA left (log2)” value [9] was -0.0182. For the same sequence, the “uncleaved DNA left (log2)” value [10] was -0.168.

With GCCCAAT the “uncleaved DNA left (log2)” value [1] was -0.0335, the “uncleaved DNA left (log2)” value [2] was 0.174 and the “uncleaved DNA left (log2)” value [3] was 0.177. For the same sequence, the “uncleaved DNA left (log2)” value [4] was 0.417, the “uncleaved DNA left (log2)” value [5] was -0.0356 and the “uncleaved DNA left (log2)” value [6] was 0.392. For the same sequence, the “uncleaved DNA left (log2)” value [7] was 0.0056, the “uncleaved DNA left (log2)” value [8] was 0.0143 and the “uncleaved DNA left (log2)” value [9] was -0.0623. For the same sequence, the “uncleaved DNA left (log2)” value [10] was 0.0635.

With GGATCGT the “uncleaved DNA left (log2)” value [1] was 0.0248, the “uncleaved DNA left (log2)” value [2] was 0.151 and the “uncleaved DNA left (log2)” value [3] was 0.764. The “uncleaved DNA left (log2)” value [4] was 1.67, the “uncleaved DNA left (log2)” value [5] was 0.0278 and the “uncleaved DNA left (log2)” value [6] was 2. The “uncleaved DNA left (log2)” value [7] was 0.125, the “uncleaved DNA left (log2)” value [8] was -0.00674 and the “uncleaved DNA left (log2)” value [9] was 0.11. For the same sequence, the “uncleaved DNA left (log2)” value [10] was 0.178.

In the case of CCCTATA, the “uncleaved DNA left (log2)” value [1] was 0.021, the “uncleaved DNA left (log2)” value [2] was -0.0572 and the “uncleaved DNA left (log2)” value [3] was -0.108. For the same sequence, the “uncleaved DNA left (log2)” value [4] was -1.86, the “uncleaved DNA left (log2)” value [5] was -0.056 and the “uncleaved DNA left (log2)” value [6] was -0.779. For the same sequence, the “uncleaved DNA left (log2)” value [7] was -0.199, the “uncleaved DNA left (log2)” value [8] was -0.0656 and the “uncleaved DNA left (log2)” value [9] was 0.0435. For the same sequence, the “uncleaved DNA left (log2)” value [10] was -0.0585.

In the case of CCGTACC, the “uncleaved DNA left (log2)” value [1] was -0.171, the “uncleaved DNA left (log2)” value [2] was -0.201 and the “uncleaved DNA left (log2)” value [3] was 0.104. The “uncleaved DNA left (log2)” value [4] was -0.808, the “uncleaved DNA left (log2)” value [5] was -0.0732 and the “uncleaved DNA left (log2)” value [6] was -0.347. The “uncleaved DNA left (log2)” value [7] was -0.728, the “uncleaved DNA left (log2)” value [8] was -0.209 and the “uncleaved DNA left (log2)” value [9] was -0.131. The “uncleaved DNA left (log2)” value [10] was -0.178.

TGCGCTA was tested, and the “uncleaved DNA left (log2)” value [1] was -0.134, the “uncleaved DNA left (log2)” value [2] was -0.0463 and the “uncleaved DNA left (log2)” value [3] was -0.236. For the same sequence, the “uncleaved DNA left (log2)” value [4] was -0.327, the “uncleaved DNA left (log2)” value [5] was -0.143 and the “uncleaved DNA left (log2)” value [6] was -0.386. The “uncleaved DNA left (log2)” value [7] was -0.156, the “uncleaved DNA left (log2)” value [8] was -0.162 and the “uncleaved DNA left (log2)” value [9] was -0.156. The “uncleaved DNA left (log2)” value [10] was -0.0445.

With GCCAGTT the “uncleaved DNA left (log2)” value [1] was -0.063, the “uncleaved DNA left (log2)” value [2] was 0.0122 and the “uncleaved DNA left (log2)” value [3] was 0.0764. For the same sequence, the “uncleaved DNA left (log2)” value [4] was -0.463, the “uncleaved DNA left (log2)” value [5] was -0.00144 and the “uncleaved DNA left (log2)” value [6] was 0.184. The “uncleaved DNA left (log2)” value [7] was -0.148, the “uncleaved DNA left (log2)” value [8] was -0.014 and the “uncleaved DNA left (log2)” value [9] was -0.0663. For the same sequence, the “uncleaved DNA left (log2)” value [10] was -0.11.

GGGGAGA was tested, and the “uncleaved DNA left (log2)” value [1] was 0.123, the “uncleaved DNA left (log2)” value [2] was 0.217 and the “uncleaved DNA left (log2)” value [3] was 0.906. For the same sequence, the “uncleaved DNA left (log2)” value [4] was 2.02, the “uncleaved DNA left (log2)” value [5] was 0.049 and the “uncleaved DNA left (log2)” value [6] was 2.35. The “uncleaved DNA left (log2)” value [7] was 0.222, the “uncleaved DNA left (log2)” value [8] was 0.193 and the “uncleaved DNA left (log2)” value [9] was 0.139. For the same sequence, the “uncleaved DNA left (log2)” value [10] was 0.219.

For CGATCCT, the “uncleaved DNA left (log2)” value [1] was -0.601, the “uncleaved DNA left (log2)” value [2] was -0.168 and the “uncleaved DNA left (log2)” value [3] was -0.124. For the same sequence, the “uncleaved DNA left (log2)” value [4] was -1.3, the “uncleaved DNA left (log2)” value [5] was -0.156 and the “uncleaved DNA left (log2)” value [6] was -0.254. For the same sequence, the “uncleaved DNA left (log2)” value [7] was -0.787, the “uncleaved DNA left (log2)” value [8] was -0.336 and the “uncleaved DNA left (log2)” value [9] was -0.0803. The “uncleaved DNA left (log2)” value [10] was -0.112.

In the case of CCCCCCA, the “uncleaved DNA left (log2)” value [1] was -0.12, the “uncleaved DNA left (log2)” value [2] was -0.204 and the “uncleaved DNA left (log2)” value [3] was -0.0229. The “uncleaved DNA left (log2)” value [4] was -0.864, the “uncleaved DNA left (log2)” value [5] was -0.071 and the “uncleaved DNA left (log2)” value [6] was -0.464. The “uncleaved DNA left (log2)” value [7] was -0.342, the “uncleaved DNA left (log2)” value [8] was -0.225 and the “uncleaved DNA left (log2)” value [9] was -0.023. For the same sequence, the “uncleaved DNA left (log2)” value [10] was 0.0124.
